The values below come from article PMC4841541.

Protein sequences, listed by entry. Tags and fused reporters are not part of them.
UniProt Q96SB4: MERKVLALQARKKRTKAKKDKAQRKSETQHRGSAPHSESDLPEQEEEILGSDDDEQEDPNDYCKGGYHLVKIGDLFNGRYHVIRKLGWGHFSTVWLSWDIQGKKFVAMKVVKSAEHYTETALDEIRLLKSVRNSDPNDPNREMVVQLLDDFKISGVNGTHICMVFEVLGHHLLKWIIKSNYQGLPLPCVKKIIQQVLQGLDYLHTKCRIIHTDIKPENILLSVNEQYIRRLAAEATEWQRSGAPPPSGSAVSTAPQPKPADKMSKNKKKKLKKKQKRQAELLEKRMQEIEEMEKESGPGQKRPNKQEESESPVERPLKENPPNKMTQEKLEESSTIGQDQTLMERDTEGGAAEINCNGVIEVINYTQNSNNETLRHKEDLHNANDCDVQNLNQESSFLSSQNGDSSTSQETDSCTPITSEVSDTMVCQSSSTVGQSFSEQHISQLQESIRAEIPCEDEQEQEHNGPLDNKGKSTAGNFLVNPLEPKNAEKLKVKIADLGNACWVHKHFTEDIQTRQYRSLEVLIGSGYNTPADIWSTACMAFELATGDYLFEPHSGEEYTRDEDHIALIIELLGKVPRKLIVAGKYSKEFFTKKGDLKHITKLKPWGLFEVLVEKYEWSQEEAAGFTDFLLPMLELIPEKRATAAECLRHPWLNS
UniProt P31751: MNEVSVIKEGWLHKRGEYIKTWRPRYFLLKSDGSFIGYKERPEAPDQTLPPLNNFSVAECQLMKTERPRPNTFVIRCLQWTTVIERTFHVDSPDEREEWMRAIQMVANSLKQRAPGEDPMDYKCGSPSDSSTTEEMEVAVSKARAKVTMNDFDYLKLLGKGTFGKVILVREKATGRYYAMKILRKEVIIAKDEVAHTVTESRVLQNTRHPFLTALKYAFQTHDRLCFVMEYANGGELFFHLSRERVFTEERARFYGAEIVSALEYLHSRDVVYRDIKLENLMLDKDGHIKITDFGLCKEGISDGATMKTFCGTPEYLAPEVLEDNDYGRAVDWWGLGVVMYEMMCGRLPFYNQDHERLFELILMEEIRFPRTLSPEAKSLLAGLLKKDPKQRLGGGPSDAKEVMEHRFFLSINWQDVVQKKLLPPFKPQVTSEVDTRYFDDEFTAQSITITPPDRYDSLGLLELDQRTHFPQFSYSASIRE
UniProt P31749: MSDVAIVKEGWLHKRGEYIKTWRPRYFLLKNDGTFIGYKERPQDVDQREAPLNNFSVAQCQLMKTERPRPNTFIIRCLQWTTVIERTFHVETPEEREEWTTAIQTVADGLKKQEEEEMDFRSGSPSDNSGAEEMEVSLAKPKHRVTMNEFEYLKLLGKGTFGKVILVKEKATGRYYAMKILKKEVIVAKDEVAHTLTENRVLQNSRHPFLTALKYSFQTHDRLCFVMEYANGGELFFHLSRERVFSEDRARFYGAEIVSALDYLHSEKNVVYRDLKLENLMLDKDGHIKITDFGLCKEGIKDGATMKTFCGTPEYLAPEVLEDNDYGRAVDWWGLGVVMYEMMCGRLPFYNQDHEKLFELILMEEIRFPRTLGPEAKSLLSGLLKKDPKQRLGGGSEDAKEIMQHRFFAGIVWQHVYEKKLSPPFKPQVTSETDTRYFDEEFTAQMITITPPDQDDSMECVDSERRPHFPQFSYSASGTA

Numbering of substitutions follows the chain as printed. Results are given in words; binding and its absence hold for the method and conditions named. Binding seen in cells or lysates may run through a third protein. Some entries that bind do so weakly or less than the wild type. Tags and fused reporters may be left off the sequences shown.

Common to all, as to assay: pull-down; GST or GST fusion proteins immobilized on glutathione-Sepharose beads, incubated with 293T cell extracts (~200 μg total protein) in 20 mM Hepes pH 7.5, 50–150 mM NaCl, 1% Triton X-100, 0.5 mM PMSF, 0.5 ml, 60 min at room temperature; four washes; Western blot with anti-HA or anti-FLAG; only the target purified
(In western blotting, separated proteins are transferred to a membrane and probed.)

For assay [1], the target named is T1, GST-LBRNt(62–92) (turkey (cDNA said to be of chicken LBR)) (UniProt P23913).
T1 sequence: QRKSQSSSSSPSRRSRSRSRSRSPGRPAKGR

For assay [2], the target named is T2, GST-LBRNt(62–92)S76G (turkey (cDNA said to be of chicken LBR)) (UniProt P23913).
T2 sequence: T1 sequence with S15G

Assay [3] has as its target T3, GST-LBRNt(62–92)S78G (turkey (cDNA said to be of chicken LBR)) (UniProt P23913).
T3 sequence: T1 sequence with S17G

Assay [4] addresses T4, GST-LBRNt(62–92)S80A (turkey (cDNA said to be of chicken LBR)) (UniProt P23913).
T4 sequence: T1 sequence with S19A

The target in assay [5] is T5, GST-LBRNt(62–92)S82A (turkey (cDNA said to be of chicken LBR)) (UniProt P23913).
T5 sequence: T1 sequence with S21A

Assay [6] has as its target T6, GST-LBRNt(62–92)S84A (turkey (cDNA said to be of chicken LBR)) (UniProt P23913).
T6 sequence: T1 sequence with S23A

Assay [7] addresses T7, GST-LBRNt(62–92)ΔRS (turkey (cDNA said to be of chicken LBR)) (UniProt P23913).
T7 sequence: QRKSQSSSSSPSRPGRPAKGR

In the case of “FLAG-SRPK1 (from UniProt Q96SB4 1-655) (enzyme)”, the binding entry in assay [1], in assay [2], in assay [3], in assay [4], in assay [5] and in assay [6] was “binds” in each case. Also, in assay [7], the binding entry is listed as “no binding (tested: extract, ~200 μg of total protein)”.
Consider “myristoylated FLAG-Akt2 (from UniProt P31751 1-481) (enzyme)”, for which the binding entry was “no binding (tested: extract, ~200 μg of total protein)” in assay [1]; “no binding (tested: extract, ~200 μg of total protein)” in assay [2]; “no binding (tested: extract, ~200 μg of total protein)” in assay [3]; “no binding (tested: extract, ~200 μg of total protein)” in assay [4]; “no binding (tested: extract, ~200 μg of total protein)” in assay [5]; “no binding (tested: extract, ~200 μg of total protein)” in assay [6]. Besides, in assay [7], the binding result was “no binding (tested: extract, ~200 μg of total protein)”.
With “myristoylated HA-Akt1 (from UniProt P31749 1-480) (enzyme)”, the binding entry was “no binding (tested: extract, ~200 μg of total protein)” in assay [1]; “no binding (tested: extract, ~200 μg of total protein)” in assay [2]; “no binding (tested: extract, ~200 μg of total protein)” in assay [3]; “no binding (tested: extract, ~200 μg of total protein)” in assay [4]; “no binding (tested: extract, ~200 μg of total protein)” in assay [5]; “no binding (tested: extract, ~200 μg of total protein)” in assay [6]. Moreover, the binding result in assay [7] is “no binding (tested: extract, ~200 μg of total protein)”.
